According to PMC4336329 (PLoS ONE, 2015):
Screen size: about 310,000 compounds; about 14,000 (4.5%) showed an effect of 50% or more. The effect is printed as a negative number. Some of the results follow.

The molecules below were run against human ether-à-go-go-related gene (hERG) potassium channel (human, UniProt Q12809) (assay: primary screen, population patch clamp on CHO cells stably expressing hERG).
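Note: peak tail current of the secondary pulse compared with the same well before compound.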

Sequence of human ether-à-go-go-related gene (hERG) potassium channel (Q12809 whole entry, looked up): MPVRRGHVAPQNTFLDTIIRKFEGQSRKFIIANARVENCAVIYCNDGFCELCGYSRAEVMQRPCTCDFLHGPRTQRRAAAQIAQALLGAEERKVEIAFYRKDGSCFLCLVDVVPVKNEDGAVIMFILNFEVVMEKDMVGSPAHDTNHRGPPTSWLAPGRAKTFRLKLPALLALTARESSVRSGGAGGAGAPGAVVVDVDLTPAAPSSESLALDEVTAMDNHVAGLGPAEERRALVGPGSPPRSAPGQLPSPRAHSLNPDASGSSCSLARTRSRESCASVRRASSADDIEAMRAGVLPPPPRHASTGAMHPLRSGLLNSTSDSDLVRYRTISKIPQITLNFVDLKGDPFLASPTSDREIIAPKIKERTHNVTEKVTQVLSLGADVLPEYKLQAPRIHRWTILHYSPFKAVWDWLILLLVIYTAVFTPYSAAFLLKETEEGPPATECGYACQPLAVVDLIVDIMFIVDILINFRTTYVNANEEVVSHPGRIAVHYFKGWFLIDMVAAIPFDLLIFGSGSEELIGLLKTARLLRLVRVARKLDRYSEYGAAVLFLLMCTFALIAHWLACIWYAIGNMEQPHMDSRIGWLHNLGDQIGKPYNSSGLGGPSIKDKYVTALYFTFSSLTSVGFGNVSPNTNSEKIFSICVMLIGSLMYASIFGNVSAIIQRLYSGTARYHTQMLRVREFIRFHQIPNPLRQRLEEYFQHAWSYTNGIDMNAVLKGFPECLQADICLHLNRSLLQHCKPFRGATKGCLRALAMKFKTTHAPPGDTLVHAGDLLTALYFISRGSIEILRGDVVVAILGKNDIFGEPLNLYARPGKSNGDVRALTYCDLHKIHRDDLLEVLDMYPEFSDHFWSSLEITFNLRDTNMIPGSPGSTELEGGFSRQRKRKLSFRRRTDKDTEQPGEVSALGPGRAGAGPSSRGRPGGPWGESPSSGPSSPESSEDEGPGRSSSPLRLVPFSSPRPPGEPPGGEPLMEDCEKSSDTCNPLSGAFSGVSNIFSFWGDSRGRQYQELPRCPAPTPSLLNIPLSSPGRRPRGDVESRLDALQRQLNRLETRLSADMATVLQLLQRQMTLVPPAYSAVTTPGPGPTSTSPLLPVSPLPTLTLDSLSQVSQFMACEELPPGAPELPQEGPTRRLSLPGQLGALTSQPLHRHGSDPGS

Structure (SMILES)	hERG current change (%, negative = inhibition) at 10uM
O=C(Nc1ccccn1)c1nc(-c2ccccc2)n(-c2ccccc2)n1	-4.87%
c1ccc(SCc2nc(-c3ccccn3)no2)cc1	-7%
O=C(C1CCCN(Cc2ccc3c(c2)OCO3)C1)N1CCCC1.O=C(O)C(=O)O (stereo not drawn)	9.26%
CCOC(=O)c1cc(C(=O)c2ccccc2O)cn2c(=O)c3c(C)c(C)sc3nc12	18.7%
C=C[C@@]1(C)CC(=O)[C@]2(O)[C@@]3(C)[C@@H](O)CCC(C)(C)[C@@H]3[C@H](O)[C@H](OC(C)=O)[C@@]2(C)O1	0.151%
Cc1cc(NC(=O)COC(=O)C2CC(=O)N(c3cccc(C)c3C)C2)no1 (stereo not drawn)	5.71%
CCOc1ccc2[nH]c(SCC(=O)OC)c([N+](=O)[O-])c2c1	5.34%
COC(=O)NNC(=O)C1CCC(C)CC1 (stereo not drawn)	-27.2%
CCOc1cc(/C=N\NC(=O)CN2CCOCC2)ccc1OCc1ccc(F)cc1	-18.2%
Cc1ccc(C2CN(C)C3(C(=O)Nc4ccccc43)C23COc2ccccc2C3=O)cc1 (stereo not drawn)	1.58%
CCNc1nc(NCC)n2c(SCc3ccc(F)cc3)nnc2n1	-20.1%
O=C(Nc1ccc2c(c1)nc1n2CCN(Cc2ccccc2)C1)NC1CCCCC1	-9.72%
COCCn1c(-c2ccc(NC(C)=O)cc2)nc2c1c(=O)[nH]c(=O)n2CC(C)C	13.1%
CCCCNC(=O)c1c(N)n(CCCOC)c2nc3ccccc3nc12	-9.6%
CCC(=O)Nc1ccc2c(c1)nc1n2CCN(CCOC)C1	9.21%
O=C(Cc1ccc(Br)cc1)N1CCN(C(=O)c2ccccc2)CC1	-30.1%
CCOC(=O)c1ccc(NC(=O)Cn2ccc([N+](=O)[O-])n2)cc1	-46.4%
COCC(=O)Nc1ncc(S(=O)(=O)c2ccc([N+](=O)[O-])cc2)s1	-12.8%
O=[N+]([O-])c1ccc(Cl)cc1CN1CCCCCC1	-3.36%
N#Cc1ccc(CN2CCN(C(=O)CCNS(=O)(=O)c3ccc(F)c(F)c3)CC2)cc1	-49.5%
O=C(O)c1ccc(N/N=C/C2=C(N3CCOCC3)C(=C\c3ccccc3)/CC2)cc1	7.96%
Cn1c(CNC(=O)CNS(=O)(=O)c2ccc(F)cc2F)cc(=O)n(C)c1=O	19.6%
Cc1ccc(-c2nc(C3CCN(S(=O)(=O)c4ccc(C(C)(C)C)cc4)CC3)no2)cc1	17.4%
COc1ccc(NC(=O)C2CCCN(c3nn4c(=O)cc(C)nc4s3)C2)c(OC)c1 (stereo not drawn)	9.44%
CCOc1cccc(-c2nnc3n2N=C(c2cc(OC)ccc2OC)CS3)c1	-5.56%
CCC(=O)Oc1ccc2c(C)cc(=O)oc2c1C	0.0333%
Cn1c(=O)c2c(nc(NCCOc3ccc(F)cc3)n2C)n(C)c1=O	-26%

Structure (SMILES)	hERG current change (%, negative = inhibition) at 10uM
CN1CCN(C(=O)c2cn(-c3ccccc3)nc2-c2cccs2)CC1	-12.2%
O=S(=O)([O-])c1cc(OS(=O)(=O)c2ccccc2)cc2ccccc12.[Na+]	18.8%
Cc1cccc(NC(=O)CSc2nnc(C3CC3)n2CC2CCCO2)c1 (stereo not drawn)	-14.9%
N#Cc1c(NC(=O)CSc2nc3c(c(C(F)(F)F)n2)CCc2ccccc2-3)sc2c1CCCC2	3.05%
CCOC(=O)N1CCC(NCCNC(=O)c2ccco2)CC1.O=C(O)C(=O)O	15.5%
COc1cc(NC(=O)Nc2ccccc2OC)c(OC)cc1NC(=O)CN1CCCCC1	1.04%
CCn1ccnc1CN(C)Cc1nc(-c2ccc(C(=O)OC)cc2)no1	-17.5%
Cc1cc2c(cc1S(=O)(=O)Nc1cccc(F)c1C)NC(=O)CO2	4.24%
O=C1/C(=C/c2cccnc2)SC(=S)N1c1ccccc1	13%
COc1ccccc1NC(=S)N(CCN1CCOCC1)Cc1ccccc1F	3.98%
COc1ccc(C(C(=O)NC2CCCC2)N(C(=O)c2ccoc2C)c2ccc(C)cc2)cc1 (stereo not drawn)	-11.4%
Cc1cc(Cl)ccc1OCC(=O)NNC(=O)c1cccnc1	3.32%
O=Cc1ccc(N2CCCC2)o1	9.3%
COc1cccc(NC(=O)Cn2cnc3sc(C)c(S(=O)(=O)N4CCCCC4)c3c2=O)c1	6.59%
Cc1nc2cc(-c3ccccc3)nn2c(C)c1CCC(=O)N1CCN(c2ccccc2)CC1	-65.7%
O=C(NNS(=O)(=O)c1ccc(Cl)cc1)c1ccc(S(=O)(=O)N2CCCCC2)cc1	13.8%
COc1ccc(N=Cc2c(O)n(C)c(=O)[nH]c2=O)cc1	16.5%
COc1ccc(N2CC(C(=O)NCCS(=O)(=O)N3CCN(c4ccccc4)CC3)CC2=O)cc1 (stereo not drawn)	15.6%
CCc1ccc2oc(-c3cccc(NC(=O)c4cccnc4)c3)nc2c1	4.45%
CC(C)(C)NC(=O)N1CCCC(C(=O)c2cccc(Cl)c2)C1 (stereo not drawn)	1.94%
CC1=NN(C(=O)Cc2ccccc2)C(O)(c2cccnc2)C1 (stereo not drawn)	-5.05%
O=C(Cc1ccc(Br)cc1)Nc1nc2ccccc2[nH]1	21.6%
C[N+]12CCC(CC1)C(C#N)(N1CCOCC1)C2.[I-] (stereo not drawn)	17%
COc1ccccc1CNC(=O)COC(=O)/C=C/c1cccs1	13.4%
COc1cc(-c2nnc(CSc3nnc(Nc4ccc(Oc5ccccc5)cc4)s3)o2)cc(OC)c1OC	-1.89%
Cc1nn(Cc2ccccc2)c(Cl)c1C(=O)OC(C)C#N (stereo not drawn)	-3.27%
O=C(NCCc1ccco1)C(=O)NCC1OCCCN1S(=O)(=O)c1ccc(F)cc1 (stereo not drawn)	-2.11%
